Measurements as given in paper PMC7819943, “Rice protein-binding microarrays: a tool to detect cis-acting elements near promoter regions in rice”.
The list shows a part of the results.

Target: T1, OsWOX13 (Oryza sativa, UniProt Q5QMM3 1-267)
T1 sequence: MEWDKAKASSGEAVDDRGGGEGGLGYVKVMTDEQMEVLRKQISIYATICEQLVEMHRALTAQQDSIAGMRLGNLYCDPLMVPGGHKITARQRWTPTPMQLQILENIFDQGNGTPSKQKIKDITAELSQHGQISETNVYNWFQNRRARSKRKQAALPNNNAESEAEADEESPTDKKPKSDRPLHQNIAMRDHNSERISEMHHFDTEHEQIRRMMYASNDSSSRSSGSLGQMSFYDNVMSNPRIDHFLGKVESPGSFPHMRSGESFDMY
Experiment: protein-binding microarray (RPBM); PBS, 2% BSA, 51.3 ng/ul salmon testes DNA, 50 uM zinc acetate, 200 nM TF, 25 C, 1 h; high values mean tight binding
Settings: protein: recombinant; tags: N-terminal polyhistidine and DsRed monomer fusion (pET32a); label: CyDye5-dUTP incorporated in the synthesized complementary strand; 3' TTTTT single-stranded linker to array surface; dsDNA, one strand shown
Procedure, shortened: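 Binding signal is defined as the fluorescence intensity of each feature in arbitrary units, read on an Axon 4000B scanner. Transcription factors with N-terminal polyhistidine and DsRed fusions came from E. coli BL21-CodonPlus and were purified on Ni–NTA. They were incubated at 200 nM for 1 h at 25 °C on a custom Agilent array that had been made double-stranded with Cy5-dUTP, with 50 µM zinc acetate present, and the array was washed.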

Sequence | binding signal
CACAAGATTGGCTACATGGGCATCGAGTAATGTAAATATTCGGAGTCACCTAGTGCAG | 9910 fluorescence intensity (a.u.)
GGCCTATTCAAATTGATGACATTTTCAACTATACCATTATCGGAGTCACCTAGTGCAG | 6840 fluorescence intensity (a.u.)
GATAATGACAATTATCCCGTGCGTTCGGATTAAGACGCCCCGGAGTCACCTAGTGCAG | 26800 fluorescence intensity (a.u.)
ACACAGCAATTATTTCATTATTATTATTACCACACTGACCCGGAGTCACCTAGTGCAG | 4230 fluorescence intensity (a.u.)
GCTAGATTGCTATATTATGGGACGGAGGGAGTACTATCTACGGAGTCACCTAGTGCAG | 9910 fluorescence intensity (a.u.)
CCAAATTTAATTTTACCTATTTTAAATGTGGCGATATATCCGGAGTCACCTAGTGCAG | 17900 fluorescence intensity (a.u.)
TAAATTTATATGGAAATTTATAGTCCGCTTTGGCACCTTGCGGAGTCACCTAGTGCAG | 8680 fluorescence intensity (a.u.)
CTGAATTACTCAAATCCAGTTACAATTAGCAGAAAACTGGCGGAGTCACCTAGTGCAG | 4780 fluorescence intensity (a.u.)
GTAATTAGATTTAATCTAATGGGACATGGTTGCATGTAGCCGGAGTCACCTAGTGCAG | 39600 fluorescence intensity (a.u.)
GAGAATTTGCTACTAATTGACTTACCAATTTGGAATTTACCGGAGTCACCTAGTGCAG | 23900 fluorescence intensity (a.u.)
AGCCCATAATTATCTGGTCAAATGAATTAAATCATTATTTCGGAGTCACCTAGTGCAG | 27800 fluorescence intensity (a.u.)
TGAAAATGATGTCAATCAAACATGAGTGGGGCCTGCTTTGCGGAGTCACCTAGTGCAG | 38500 fluorescence intensity (a.u.)
ACTTAATCCAAATTTGTTATATTAGGAGATGTCACATCCTCGGAGTCACCTAGTGCAG | 8800 fluorescence intensity (a.u.)
TCAAACAGCTATTAACGTGATCAAACATGCCTAATCTTGGCGGAGTCACCTAGTGCAG | 4680 fluorescence intensity (a.u.)
CAGTAATCTGTTATCCTAACTGACAGCTGCTTATACCAAACGGAGTCACCTAGTGCAG | 22300 fluorescence intensity (a.u.)
TGTTTGTGATTTACTTTATTATCAAAAGTATTTTAAGTATCGGAGTCACCTAGTGCAG | 6840 fluorescence intensity (a.u.)
GACCCAATTAAAGTACAGTAATTTAGCTGAGATTTATCGCCGGAGTCACCTAGTGCAG | 15700 fluorescence intensity (a.u.)
TTTAATACTCTAAATTAGTATCTAAATACAGGGACTAAAGCGGAGTCACCTAGTGCAG | 4580 fluorescence intensity (a.u.)
GCTGGATTGAGGGGTGGATAGAGTGCTAGGCGAAATTACCCGGAGTCACCTAGTGCAG | 7980 fluorescence intensity (a.u.)
TCATAAACTGGAGTTGACAAACTGCTTGGTATACCGGTTACGGAGTCACCTAGTGCAG | 14300 fluorescence intensity (a.u.)
AGTACATAATTGGGCAAGACAAGGCCCATACAAATAGAGGCGGAGTCACCTAGTGCAG | 16900 fluorescence intensity (a.u.)
GCTTTAATGGACGATGAATGCCATATTACGTGAATTAGGCCGGAGTCACCTAGTGCAG | 12400 fluorescence intensity (a.u.)
AGTTTAATTAAAATGTTATGGCGGGCAAGCATTGCGGAAACGGAGTCACCTAGTGCAG | 15700 fluorescence intensity (a.u.)
